Results taken from publication PMC3179936.
Some values that stand alone complete this part of the results.

Target: recombinant leucyl aminopeptidase of T. cruzi (rLAPTc), N-terminal His-tag (Trypanosoma cruzi)
Assay: SEC-MALS; 20 μl rLAPTc at 170 μM (10 mg/ml), 25 mM Tris-HCl pH 7.5, 100 mM NaCl, KW 804 column, 20°C, with refractometry

- stoichiometry N (SEC peak at 8.5 ml elution): 17.5 subunits
- stoichiometry N (SEC peak at 11.2 ml elution): 3 subunits
Substance: recombinant leucyl aminopeptidase of T. cruzi (rLAPTc), N-terminal His-tag (enzyme)
